In all, about 150,000 compounds went through this assay and about 540 (0.36%) showed an effect of 50% or more. Some of the results follow.

The % Inhibition is the change of the read-out against control, counted positive when it falls.

The subject of this experiment is Plasmodium falciparum. The experiment in a line: Primary screen in NF54 nanoGlo assay, in single point, at 2uM, 72h; a lower Z score goes with more inhibition. In kind it is functional, Erythrocyte. The following applies: timepoint 72 hour.
Take `CCC(C(N)=O)N1CCOC(CO)C1` (stereo unspecified): the “% Inhibition” value is on record as -4% and the Z score came to 0.56.

Consider `CCS(=O)(=O)N1CC(=O)N(c2cccc(Cl)c2C)[C@](C)(C(=O)NC2CCCCCCC2)C1`, for which the “% Inhibition” value is -2% and the Z score is recorded as 0.21.

As to `CCCN(CC(=O)O)C(=O)c1cc(C)cc(C)c1`, the “% Inhibition” value is -7% and the Z score came to 1.22.

As to `O=C(Cc1ccccc1)NCCN1CCCC1`, the “% Inhibition” value is -3% and the Z score worked out at 0.45.

As for `Cc1c(NC(=O)Cc2ccc(Br)cc2)c(=O)n(-c2ccccc2)n1C`, the “% Inhibition” value is reported as -13% and the Z score was determined as 1.12.

On to `Cc1ccc(N2C[C@H]3CC[C@@H](C2)N(Cc2c(C)noc2C)C3=O)nn1`, for which the “% Inhibition” value is listed as -4% and the Z score turned out to be 0.46.

For the compound `CCN(C(=O)[C@H](C)Nc1cn(C)nc1C)C1CCCCC1`, the “% Inhibition” value is on record as -11% and the Z score was determined as 1.59.

With `CCC(CC)(CC)NC(=O)[C@H]1CCOC1`, the “% Inhibition” value is given as 2% and the Z score is recorded as -0.34.

In the case of `O=C1CCCCCN1CCC(=O)N1CCc2c(Cl)cccc2C1`, the “% Inhibition” value is recorded as -19% and the Z score is 1.88.

As to `O=S1(=O)CC[C@H](Nc2ncnc3c2cnn3-c2ccc(Cl)c(Cl)c2)C1`, the “% Inhibition” value is given as -15% and the Z score is given as 2.51.

Take `CCCc1nc(C(=O)N2CCC3(CC2)Cc2cccc(c2)Oc2ccc(cc2)C[C@@H](C(=O)O)NC(=O)CCNC3=O)cs1`: the “% Inhibition” value was -11% and the Z score was determined as 1.43.

For the compound `Cn1ccc(C(=O)N[C@@H]2COCC[C@@H]2Oc2cccc(F)c2)cc1=O`, the “% Inhibition” value turned out to be 1% and the Z score is listed as -0.24.

On to `O=C1NCCC[C@@]12CCN(Cc1nc3c(s1)CCCC3)C2`, for which the “% Inhibition” value is on record as -10% and the Z score came out at 1.73.

Take `CC(C)(C)CC(C)(C)NC(=O)Nc1cccc(C(F)(F)F)c1`: the “% Inhibition” value was -16% and the Z score worked out at 1.71.

Consider `Cc1cc(-c2ccc(S(=O)(=O)N3CCC(C(=O)N4CCC[C@H](C)C4)CC3)o2)[nH]n1`, for which the “% Inhibition” value was -10% and the Z score is on record as 1.6.

As for `CCN(CCn1cccn1)Cc1cncn1C1CC1`, the “% Inhibition” value was -7% and the Z score amounted to 1.49.

`COc1ccc(NC(=O)COc2ncccn2)c(OC)c1`: the “% Inhibition” value is given as -12% and the Z score worked out at 1.39.

In the case of `COc1ccccc1C1CCC(C)CN1CC(=O)NC(N)=O` (stereo unspecified), the “% Inhibition” value is 5% and the Z score is listed as -0.77.

For the compound `O=C(NC[C@H](O)CN1CCCC1=O)NC1CCCCC1`, the “% Inhibition” value was -14% and the Z score stood at 2.66.

Turning to `O=C1NCCN2CCN(C(=O)C3Cc4ccccc4C3)C[C@@H]12`, the “% Inhibition” value was -17% and the Z score is on record as 1.72.

Take `Cc1cc(C)c(NC(=O)Cn2ncn3c(C)c(C(=O)NCc4ccc(F)cc4)c(C)c3c2=O)c(C)c1`: the “% Inhibition” value is listed as 3% and the Z score was -0.4.

With `NC(=O)COc1cccc(-c2cn(CC3CCOCC3)nn2)c1`, the “% Inhibition” value is -8% and the Z score was determined as 1.05.

In the case of `Cc1nnc(NCCN2CCCCCC2)c(C#N)c1C`, the “% Inhibition” value is reported as -5% and the Z score is 1.07.

In the case of `Nc1nc(C2(c3ccc(Cl)cc3)CCCC2)cs1`, the “% Inhibition” value was determined as 5% and the Z score was -0.62.

For the compound `O=C(CCCn1nnnc1CN1CCc2ccccc2C1)NCCc1cscn1`, the “% Inhibition” value was -9% and the Z score came out at 1.62.

On to `CCc1cnc(C)nc1N1CCC[C@@]2(CCC(=O)N(CCc3c[nH]cn3)C2)C1`, for which the “% Inhibition” value is 2% and the Z score is -0.25.

In the case of `CC(CNC1CCN(Cc2ccccn2)CC1C)Cc1cccs1` (stereo unspecified), the “% Inhibition” value is on record as -7% and the Z score is recorded as 0.62.

For the compound `CCCCNC(=O)CN(C)[C@@H](C(=O)O)c1ccc(OC(C)C)cc1`, the “% Inhibition” value worked out at 8% and the Z score is recorded as -1.07.

For `Cc1nc2ccccc2c2oc(C(=O)NC3CCC(C)CC3)cc12` (stereo unspecified), the “% Inhibition” value worked out at 4% and the Z score was -0.55.

As to `COCC1(S(=O)(=O)NC2CCOC2C)CC1` (stereo unspecified), the “% Inhibition” value is -4% and the Z score is recorded as 0.77.

`CS(=O)(=O)N1CCC[C@H]1C(=O)N1CCc2c(Cl)cccc2C1`: the “% Inhibition” value amounted to 0% and the Z score was -0.09.

For `O=c1[nH]c(CC2CC2)nc2c1Cc1ccccc1OC2`, the “% Inhibition” value was 3% and the Z score is on record as -0.53.

`CN(CCN(C)C(=O)c1ccc(F)cn1)C(=O)c1ccc(F)cn1`: the “% Inhibition” value was -8% and the Z score came to 0.86.

As to `CC(Cn1cccn1)C(=O)N1CCCC1C1CCCN1C` (stereo unspecified), the “% Inhibition” value was -5% and the Z score is 0.48.

On to `CN(Cc1ccc(-n2cccn2)cc1)C(=O)c1ncoc1C1CC1`, for which the “% Inhibition” value is listed as -13% and the Z score is on record as 1.17.

For `COC(=O)c1cccc(OS(=O)(=O)NC(=O)OC[C@@H]2CCCN3CCCCC23)c1` (stereo partly specified), the “% Inhibition” value is listed as 6% and the Z score is listed as -0.88.

Consider `CCC(C)CC(=O)NCC1Cc2cc(C)cc(-c3ccc(OC)nn3)c2O1` (stereo unspecified), for which the “% Inhibition” value is 1% and the Z score is on record as -0.11.

With `Cn1cnnc1NC(=O)[C@H](Oc1cccc(Br)c1)c1ccccc1`, the “% Inhibition” value was -4% and the Z score turned out to be 0.52.

With `O=C(CCn1cc(Cl)cn1)N1CCN(c2ccc3[nH]ncc3c2)C(=O)C1`, the “% Inhibition” value is given as -9% and the Z score stood at 1.29.

Take `CC(=O)N(C)CC(=O)NCCCCc1nc(-c2ccccn2)cs1`: the “% Inhibition” value is -6% and the Z score is 0.76.

As to `CC(=O)N[C@@H]1C[C@H](Cc2ccccc2)O[C@H](c2ccc(-n3cncn3)cc2)C1`, the “% Inhibition” value is recorded as -7% and the Z score is 1.06.

Regarding `CC(C)N(C)S(=O)(=O)N1CCO[C@@H](C)C1`, the “% Inhibition” value is reported as -12% and the Z score is 1.57.

As to `C[C@]1(CCCO)CCCN1S(=O)(=O)c1c[nH]c(C(=O)N2CCCC2)c1`, the “% Inhibition” value is given as -10% and the Z score worked out at 1.15.

The values above are taken from ChEMBL document CHEMBL4888484, “Replenishing the malaria drug discovery pipeline: Screening and hit evaluation of the MMV Hit Generation Library 1 (HGL1) against asexual blood stage Plasmodium falciparum ,using a nano luciferase reporter read-out” (2022).
